Test results reported in article PMC11513070.
Results are given in words; binding and its absence hold for the method and conditions named. In cells and extracts the contact can be indirect. Some results given as binding are weak or reduced against the parent protein; the word gives no strength. Where a sequence is shown, tags or fusion partners need not be part of it.

Tests used:
Experiment in all cases: co-IP; 3xFLAG-tagged SPP/SPPL protease precipitated with anti-FLAG beads from lysates of transiently transfected HEK293T cells; western blot for endogenous calnexin
[1] = biological target: T1, SPP-3xFLAG (murine signal peptide peptidase) (mouse) (UniProt Q9D8V0)
T1 sequence (chain, N-glycosylated at N10 and N20): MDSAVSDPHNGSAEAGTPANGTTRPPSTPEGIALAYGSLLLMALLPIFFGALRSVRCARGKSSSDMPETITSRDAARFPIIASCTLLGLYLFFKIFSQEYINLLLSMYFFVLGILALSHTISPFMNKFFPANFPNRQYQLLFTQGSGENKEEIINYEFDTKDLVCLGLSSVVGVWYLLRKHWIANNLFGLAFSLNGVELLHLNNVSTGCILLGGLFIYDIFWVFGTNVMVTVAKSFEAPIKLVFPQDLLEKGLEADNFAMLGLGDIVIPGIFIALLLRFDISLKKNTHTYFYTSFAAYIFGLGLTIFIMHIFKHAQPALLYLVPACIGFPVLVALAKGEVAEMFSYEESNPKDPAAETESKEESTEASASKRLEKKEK

SPPL2a-3xFLAG = biological target: T2, SPPL2a-3xFLAG (UniProt Q9JJF9)
T2 sequence (chain, N-glycosylated in the N-terminus (sites not printed)): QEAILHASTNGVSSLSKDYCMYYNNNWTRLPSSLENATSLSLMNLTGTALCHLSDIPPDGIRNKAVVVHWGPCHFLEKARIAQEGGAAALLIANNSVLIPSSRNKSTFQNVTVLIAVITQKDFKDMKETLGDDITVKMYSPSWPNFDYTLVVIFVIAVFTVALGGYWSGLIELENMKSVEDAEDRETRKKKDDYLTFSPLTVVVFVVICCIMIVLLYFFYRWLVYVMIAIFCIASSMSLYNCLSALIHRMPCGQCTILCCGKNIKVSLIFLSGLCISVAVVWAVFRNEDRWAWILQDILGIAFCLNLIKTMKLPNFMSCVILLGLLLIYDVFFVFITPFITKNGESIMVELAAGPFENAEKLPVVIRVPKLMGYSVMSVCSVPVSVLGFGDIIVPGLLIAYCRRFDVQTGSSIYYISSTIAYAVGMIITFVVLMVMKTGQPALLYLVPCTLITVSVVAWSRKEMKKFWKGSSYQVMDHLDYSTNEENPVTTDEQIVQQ

SPPL2b-3xFLAG = biological target: T3, SPPL2b-3xFLAG (UniProt Q3TD49)
T3 sequence (chain, N-glycosylated in the N-terminus (sites not printed)): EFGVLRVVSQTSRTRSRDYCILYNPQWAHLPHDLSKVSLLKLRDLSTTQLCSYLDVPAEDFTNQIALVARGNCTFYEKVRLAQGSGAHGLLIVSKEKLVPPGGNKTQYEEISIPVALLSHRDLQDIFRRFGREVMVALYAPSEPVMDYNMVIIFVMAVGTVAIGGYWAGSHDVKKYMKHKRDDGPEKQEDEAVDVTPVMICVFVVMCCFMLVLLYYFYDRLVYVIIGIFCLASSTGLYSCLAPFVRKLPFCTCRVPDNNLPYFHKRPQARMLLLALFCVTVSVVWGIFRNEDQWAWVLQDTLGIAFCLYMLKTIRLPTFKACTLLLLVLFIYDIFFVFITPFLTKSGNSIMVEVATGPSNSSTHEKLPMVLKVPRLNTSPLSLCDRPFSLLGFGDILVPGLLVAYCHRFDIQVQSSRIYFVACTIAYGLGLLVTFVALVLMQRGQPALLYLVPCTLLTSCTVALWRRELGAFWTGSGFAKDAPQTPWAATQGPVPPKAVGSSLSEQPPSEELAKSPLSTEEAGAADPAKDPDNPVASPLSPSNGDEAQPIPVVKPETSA

- binding [1]: binds
- binding (SPPL2a-3xFLAG): binds
B1: calnexin, endogenous in HEK293T cells (protein, UniProt P27824 21-592)
chain: HDGHDDDVIDIEDDLDDVIEEVEDSKPDTTAPPSSPKVTYKAPVPTGEVYFADSFDRGTLSGWILSKAKKDDTDDEIAKYDGKWEVEEMKESKLPGDKGLVLMSRAKHHAISAKLNKPFLFDTKPLIVQYEVNFQNGIECGGAYVKLLSKTPELNLDQFHDKTPYTIMFGPDKCGEDYKLHFIFRHKNPKTGIYEEKHAKRPDADLKTYFTDKKTHLYTLILNPDNSFEILVDQSVVNSGNLLNDMTPPVNPSREIEDPEDRKPEDWDERPKIPDPEAVKPDDWDEDAPAKIPDEEATKPEGWLDDEPEYVPDPDAEKPEDWDEDMDGEWEAPQIANPRCESAPGCGVWQRPVIDNPNYKGKWKPPMIDNPSYQGIWKPRKIPNPDFFEDLEPFRMTPFSAIGLELWSMTSDIFFDNFIICADRRIVDDWANDGWGLKKAADGAAEPGVVGQMIEAAEERPWLWVVYILTVALPVFLVILFCCSGKKQTSGMEYKKTDAPQPDVKEEEEEKEEEKDKGDEEEEGEEKLEEKQKSDAEEDGGTVSQEEEDRKPKAEEDEILNRSPRNRKPRRE
- binding (SPPL2b-3xFLAG): binds
